# Experimental data taken from the antibiotic and cytotoxicity screens of Wong et al. (2023).
# The other results are listed elsewhere or left out.
# Legend:
# HSkMC = human skeletal muscle cells; test: cytotoxicity call (relative viability < 0.9); details: 10 µM
# HepG2 = test: cytotoxicity call (relative viability < 0.9); details: 10 µM
# S. aureus RN4220 = test: growth inhibition call (relative growth <= 0.2); details: 50 µM
SMILES,cytotoxicity call (HSkMC),cytotoxicity call (HepG2),growth inhibition call (S. aureus RN4220)
COc1ccc(S(=O)(=O)Nc2cccc3c2O[C@H](CN(C)S(=O)(=O)c2cccs2)[C@H](C)CN([C@@H](C)CO)C3=O)cc1,inactive,inactive,inactive
COc1ccc(S(=O)(=O)N(C)C[C@H]2OCCCC[C@@H](C)Oc3ccc(NC(=O)CCCCCC(=O)Nc4ccccc4N)cc3C(=O)N([C@H](C)CO)C[C@@H]2C)cc1,inactive,inactive,inactive
Cc1noc(C)c1NC(=O)Nc1ccc2c(c1)CC(=O)N([C@H](C)CO)C[C@H](C)[C@@H](CN(C)Cc1ccc(-c3ccccc3)cc1)O2,inactive,inactive,inactive
O=c1c(-c2ccc(O)cc2)coc2cc(O)ccc12,inactive,inactive,inactive
C[C@@H]1CN([C@@H](C)CO)C(=O)Cc2cc(NC(=O)CCCCCC(=O)Nc3ccccc3N)ccc2O[C@@H]1CN(C)Cc1ccc(Oc2ccccc2)cc1,inactive,active,inactive
CCCCCN(CCCCC)C(=O)C(CCC(=O)[O-])NC(=O)c1ccc(Cl)c(Cl)c1.[Na+] (configuration not stated),inactive,inactive,inactive
COCCNC(=O)C[C@H]1C[C@H]2c3cc(NC(=O)CN(C)C)ccc3O[C@H]2[C@@H](CO)O1,inactive,inactive,inactive
C[C@H]1CN([C@@H](C)CO)C(=O)Cc2cc(NC(=O)Nc3ccccc3)ccc2O[C@@H]1CN(C)Cc1ccc(C(=O)Nc2ccccc2N)cc1,inactive,inactive,inactive
C[C@H](CO)N1C[C@H](C)[C@@H](CN(C)C(=O)N[C@H](C)c2ccccc2)OCc2ccccc2-c2c(n(C)c3ccccc23)C1=O,inactive,inactive,inactive
C[C@H]1CN([C@@H](C)CO)C(=O)c2cc(NS(=O)(=O)c3cccs3)ccc2O[C@@H]1CN(C)S(=O)(=O)c1ccccc1,inactive,inactive,inactive
O=C(O)c1ccc(O)c(O)c1O,inactive,inactive,inactive
C[C@@H]1CN([C@@H](C)CO)C(=O)Cc2cc(NC(=O)Nc3ccc(F)cc3)ccc2O[C@@H]1CN(C)S(=O)(=O)c1cn(C)cn1,inactive,inactive,inactive
CC(C)(C)OC(=O)CC[C@]1(C(=O)NCc2ccccc2)N=C(c2ccc(OCCCO)cc2)O[C@H]1c1ccccc1,inactive,active,inactive
C[C@H](CO)N1C[C@H](C)[C@H](CN(C)Cc2ccccc2)Oc2ccc(NC(=O)Nc3ccc(C(F)(F)F)cc3)cc2CC1=O,active,active,inactive
C[C@H](CO)N1C[C@H](C)[C@H](CN(C)C(=O)Nc2cccc3ccccc23)Oc2ccc(NC(=O)Cc3cn(C)c4ccccc34)cc2CC1=O,inactive,inactive,inactive
CC(C)NC(=O)Nc1ccc2c(c1)C(=O)N([C@H](C)CO)C[C@H](C)[C@H](CN(C)Cc1ccc(Cl)c(Cl)c1)OCCCC[C@@H](C)O2,inactive,inactive,inactive
C[C@@H]1CN([C@@H](C)CO)C(=O)c2cc(NC(=O)NC3CCCCC3)ccc2O[C@@H]1CN(C)Cc1ccc(Cl)c(Cl)c1,inactive,inactive,inactive
C[C@@H]1CCCCO[C@@H](CN(C)Cc2ccccc2)[C@@H](C)CN([C@H](C)CO)C(=O)c2cc(NC(=O)Nc3ccc4c(c3)OCO4)ccc2O1,inactive,inactive,inactive
C[C@@H]1CCCCO[C@H](CN(C)C(=O)Nc2ccc3c(c2)OCO3)[C@H](C)CN([C@@H](C)CO)C(=O)c2cc(NC(=O)c3ccncc3)ccc2O1,inactive,inactive,inactive
Cc1cc(SC(=O)N/C=C/c2ccco2)c(C)cc1Cl,inactive,inactive,inactive
C[C@@H]1CCCCO[C@@H](CN(C)Cc2ccc(C(F)(F)F)cc2)[C@@H](C)CN([C@@H](C)CO)C(=O)c2cc(NC(=O)CCCN(C)C)ccc2O1,inactive,inactive,inactive
C[C@H]1COC(=O)[C@H](Cc2ccc(F)cc2)CCC=CC[C@@H](CC(=O)N[C@H](CO)Cc2ccccc2)C(=O)N1,inactive,inactive,inactive
O=C(C[C@H]1CC[C@H]2[C@@H](COC[C@H](O)CN2C(=O)Nc2ccc3c(c2)OCO3)O1)N1CCN(c2ccccc2)CC1,inactive,inactive,inactive
COc1ccc(S(=O)(=O)Nc2ccc3c(c2)CC(=O)N([C@H](C)CO)C[C@H](C)[C@H](CN(C)S(=O)(=O)c2c(C)noc2C)O3)cc1,inactive,inactive,inactive
